Here are results for 58 compounds from publication PMC4336329 (PLoS ONE, 2015).

About 14,000 (4.5%) of roughly 310,000 compounds showed an effect of 50% or more. Effects have a minus sign here. The list shows a part of the results.
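Further: peak tail current of the secondary pulse compared with the same well before compound.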

Chain of human ether-à-go-go-related gene (hERG) potassium channel (Q12809 whole entry, looked up): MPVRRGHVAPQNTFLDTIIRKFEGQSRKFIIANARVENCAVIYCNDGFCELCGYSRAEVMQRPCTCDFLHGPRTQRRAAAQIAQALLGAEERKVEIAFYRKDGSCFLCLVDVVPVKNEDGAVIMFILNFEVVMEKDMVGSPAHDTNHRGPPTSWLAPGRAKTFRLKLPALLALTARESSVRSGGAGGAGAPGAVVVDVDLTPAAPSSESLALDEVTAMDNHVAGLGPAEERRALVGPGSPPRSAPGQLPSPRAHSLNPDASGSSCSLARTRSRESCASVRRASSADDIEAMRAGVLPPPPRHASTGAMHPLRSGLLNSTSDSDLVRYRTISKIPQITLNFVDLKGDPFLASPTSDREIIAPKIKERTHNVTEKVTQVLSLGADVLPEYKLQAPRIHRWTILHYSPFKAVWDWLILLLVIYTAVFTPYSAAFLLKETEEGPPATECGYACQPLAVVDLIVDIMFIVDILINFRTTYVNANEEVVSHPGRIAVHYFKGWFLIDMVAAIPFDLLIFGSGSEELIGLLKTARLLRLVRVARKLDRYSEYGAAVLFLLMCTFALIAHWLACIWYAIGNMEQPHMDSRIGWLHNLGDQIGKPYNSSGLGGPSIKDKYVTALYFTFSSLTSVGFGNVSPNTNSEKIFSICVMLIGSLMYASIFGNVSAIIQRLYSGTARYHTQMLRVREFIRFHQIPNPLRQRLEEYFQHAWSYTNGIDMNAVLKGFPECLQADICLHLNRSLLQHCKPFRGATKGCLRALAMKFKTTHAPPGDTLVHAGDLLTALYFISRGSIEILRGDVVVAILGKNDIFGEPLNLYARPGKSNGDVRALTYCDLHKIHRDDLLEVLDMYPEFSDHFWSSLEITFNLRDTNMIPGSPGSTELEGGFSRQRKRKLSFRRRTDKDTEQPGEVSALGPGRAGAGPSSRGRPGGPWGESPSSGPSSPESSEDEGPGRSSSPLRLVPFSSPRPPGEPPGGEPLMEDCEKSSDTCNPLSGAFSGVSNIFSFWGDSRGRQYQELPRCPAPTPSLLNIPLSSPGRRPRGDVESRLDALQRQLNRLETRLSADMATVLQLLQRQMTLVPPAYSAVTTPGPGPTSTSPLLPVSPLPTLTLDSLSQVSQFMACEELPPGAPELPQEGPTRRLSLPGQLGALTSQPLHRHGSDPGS

This test addresses human ether-à-go-go-related gene (hERG) potassium channel (human, UniProt Q12809). Put plainly: primary screen, population patch clamp on CHO cells stably expressing hERG.
Take `CCOC(=O)c1cc[nH]c1C`: the “hERG current change (%, negative = inhibition) at 10uM” value was 24.4%.
Next, `Cc1ccc(-c2nc(=S)c3c(n2Cc2ccco2)CC(C)(C)OC3)cc1`: -18.2%; `O=c1c2nnn(-c3ccc(Br)cc3)c2ncn1Cc1ccccn1`: -32.8%.
The result for `NNC(=O)CN(CCc1ccccc1)S(=O)(=O)c1ccc(Cl)cc1` reads -18.3%.
The result for `CC(C)(C)OC(=O)CNC(=O)c1[nH]cnc1C(=O)Nc1ccc(Cl)cc1` reads 20.4%; that for `Cc1nc2oc3ccc(F)cc3c(=O)c2cc1C(=O)O`, 5.61%; that for `COc1ccc(S(=O)(=O)NC2CCSc3ccccc32)cc1NC(C)=O` (stereo not shown), 0.452%.
As to `CN1CCN(C2=Cc3ccccc3Sc3cc(F)ccc32)CC1.O=C(O)/C=C\C(=O)O`, the “hERG current change (%, negative = inhibition) at 10uM” value is reported as -62.8%.
As to `CC(=O)NC(c1cccs1)c1cc(F)c2cccnc2c1O` (stereo not shown), the “hERG current change (%, negative = inhibition) at 10uM” value is on record as 11.4%.
For the compound `COc1ccc(OC)c(-c2csc(CCn3nc(C)cc3C)n2)c1`, the “hERG current change (%, negative = inhibition) at 10uM” value is 3.06%.
Take `COc1ccc(Cl)cc1NC(=O)COC(=O)CCNC(C)=O`: the “hERG current change (%, negative = inhibition) at 10uM” value was -1.91%.
The result for `CCN(CC)CCOC(=O)c1cccc(Cl)c1.Cl` reads -32.4%.
The result for `Cc1ccnc(SCc2cc(=O)c(OC(=O)c3ccccc3)co2)n1` reads 9.02%; that for `COCCNC(=O)CN1CCCCCC1.Cl`, 25.7%.
With `CCc1ccc(NC(=S)N2CCC(NC(=O)C3CCCCC3)CC2)cc1`, the “hERG current change (%, negative = inhibition) at 10uM” value amounted to 19.9%.
Turning to `CCN1CCN(CC(=O)c2c[nH]c3ccc(C)cc23)CC1`, the “hERG current change (%, negative = inhibition) at 10uM” value is on record as -4.16%.
Next, `O=C(NCC12CC3CC(C1)CC(CNC(=O)N1CCCC1)(C3)C2)N1CCCC1`: -3.73%.
Regarding `COc1ccc(NC(=O)c2ccco2)cc1NC(=O)COc1ccccc1[N+](=O)[O-]`, the “hERG current change (%, negative = inhibition) at 10uM” value turned out to be 12.7%.
Next, `O=C(O)CC1(CC(=O)NCc2ccc(-c3cccs3)cc2)CCCCC1`: 2.95%; `COc1cc(N)ccc1-c1cc2ccccc2oc1=O`: 7.64%.
As for `O=C1C2C3C=CC(C4CC34)C2C(=O)N1Cc1ccco1` (stereo not shown), the “hERG current change (%, negative = inhibition) at 10uM” value is 4.37%.
Next, `COc1cc(C(C)=O)ccc1Oc1cc(NN2CCCCC2)c([N+](=O)[O-])cc1[N+](=O)[O-]`: -23.3%; `O=C1NC(=Nc2ccccc2)S/C1=C/c1cccnc1`: 15.9%; `COc1ccccc1C(=O)COC(=O)c1ccccc1O`: 3%.
Next, `NC(=O)CSc1oc(-c2ccco2)nc1S(=O)(=O)c1ccc(Br)cc1`: -22.7%; `CCOP(=O)(CN(CC)CCNP(=O)(OCC)OCC)OCC`: 6.87%; `CC(C)c1ccc(C2=NN(c3ccccc3)C(=O)CC2)cc1`: -31.6%.
For `CC(C)c1nnc(NC(=O)CCS(=O)(=O)c2nc(-c3cccs3)cc(C(F)(F)F)n2)s1`, the “hERG current change (%, negative = inhibition) at 10uM” value is 5.26%.
The result for `CN1CCN(C(=O)C2=C[C@H](c3ccc(Br)cc3)C[C@H](OCCCCO)O2)CC1` reads -47.7%; that for `COC(=O)c1cc(=O)n(Cc2ccc(OC)cc2)c(=NCc2ccc(OC)cc2)s1`, 14%.
Next, `O=C1NC2=C(C(=O)CCC2)C(c2ccc(OC(F)F)cc2)N1` (stereo not shown): 10.3%; `O=C1[C@H]2[C@@H](c3ccc(Cl)cc3)N3C(=O)N(c4cccc(F)c4)C(=O)[C@@]3(Cc3ccccc3)[C@H]2C(=O)N1C1CCCCC1`: 13.6%; `O=C(NCc1cccc(Cl)c1)c1cnccn1`: -9.28%.
Next, `Nc1nc2n(c1C(=O)c1ccccc1)CCC2`: -10.5%; `CCCCCCCCNC(=O)/C(C#N)=C/c1ccc(SC)cc1`: 7.54%.
Consider `C=CCc1c(N(CC)CC)nc(C)[nH]c1=O`, for which the “hERG current change (%, negative = inhibition) at 10uM” value is -3.26%.
As for `CC(C)c1onc(C(=O)N2CCCCCC2)c1[N+](=O)[O-]`, the “hERG current change (%, negative = inhibition) at 10uM” value is reported as 6.89%.
On to `O=C(CCN1C(=O)C2C3C=CC(C3)C2C1=O)Oc1ccc2ccccc2c1` (stereo not shown), for which the “hERG current change (%, negative = inhibition) at 10uM” value came to 17.4%.
For the compound `CC(C)(C)n1nc2c(c1NC(=O)c1cc3ccccc3o1)CS(=O)(=O)C2`, the “hERG current change (%, negative = inhibition) at 10uM” value was -16.8%.
As for `Cn1c(CNC(=O)CNC(=O)Cc2ccc(Cl)cc2)cc(=O)n(C)c1=O`, the “hERG current change (%, negative = inhibition) at 10uM” value worked out at 18.9%.
For `CN(C(=O)CSc1nnc(-c2ccc3c(c2)OCO3)o1)C1CCS(=O)(=O)C1` (stereo not shown), the “hERG current change (%, negative = inhibition) at 10uM” value is reported as -23.7%.
The result for `COCCN(C(=O)CNC(=O)c1ccco1)C(C(=O)NC1CCCCC1)c1cccnc1` (stereo not shown) reads 20.1%; that for `COc1ccc(NC(=O)c2ccc[n+]([O-])c2)cc1`, 10.5%; that for `Cc1ccc2c(c1)C(=O)C(=O)N2CC(=O)Nc1ccc(N2CCOCC2)cc1`, -6.96%.
The result for `Cc1cc(Cl)ccc1C(=O)C1CCCN(C(=O)c2cncs2)C1` (stereo not shown) reads -25.8%.
Next, `CC(=O)Nc1ccc(S(=O)(=O)NCCN2CCNC2=O)cc1Cl`: 12.4%; `Nc1c(Cl)cc(-c2[nH]c3cc(C(=O)NCCO)ccc3c(=O)c2O)cc1Cl`: 12.1%.
For `O=C(NNC(=O)c1cc2cc3ccccc3nc2s1)c1ccc(F)cc1`, the “hERG current change (%, negative = inhibition) at 10uM” value was found to be 2.97%.
On to `CN(C)C(=O)c1cc(C(=O)c2ccc(Cl)cc2Cl)c[nH]1`, for which the “hERG current change (%, negative = inhibition) at 10uM” value came out at 0.176%.
As to `O=C1CC(c2nc3ccccc3[nH]2)CN1Cc1ccccc1` (stereo not shown), the “hERG current change (%, negative = inhibition) at 10uM” value is given as 5.44%.
The result for `CCN(CC)S(=O)(=O)c1ccc2c(c1)nc(CCC(=O)Nc1ccc3c(c1)OCO3)n2CC` reads -0.447%.
The result for `CC(=O)Nc1ccc(NC(=O)CSc2ccc3nnc(-c4cccnc4)n3n2)cc1` reads 2.95%.
Consider `Cc1nnc2c(-c3ccccc3)nc3ccccc3n12`, for which the “hERG current change (%, negative = inhibition) at 10uM” value is given as -2.02%.
Next, `Cc1ccc(O)c(NC(=O)COc2cc(C)ccc2C)c1`: 0.625%; `CC(=O)OC/C=C(\C)CCC=C(C)C`: -0.25%.
On to `CCOC(=O)C1=C(COC(=O)Cc2ccccc2F)NC(=O)NC1C` (stereo not shown), for which the “hERG current change (%, negative = inhibition) at 10uM” value is reported as 8.16%.
For `COc1ccc2[nH]c3c(c2c1)CCN=C3C`, the “hERG current change (%, negative = inhibition) at 10uM” value was -18.2%.
The result for `COC(=O)CCS(=O)(=O)c1nc(-c2ccccc2)cc(C(F)(F)F)n1` reads -13%.
